Measured values reported in the antibiotic and cytotoxicity screens of Wong et al. (2023).
The other results are listed elsewhere or left out.

Experiments:
[1] = system: HSkMC (human skeletal muscle cells); test: cytotoxicity call (relative viability < 0.9); conditions: 10 µM
[2] = system: HepG2; test: cytotoxicity call (relative viability < 0.9); conditions: 10 µM
[3] = system: S. aureus RN4220; test: growth inhibition call (relative growth <= 0.2); conditions: 50 µM

SMILES	cytotoxicity call [1]	cytotoxicity call [2]	growth inhibition call [3]
Cc1ccc(S(=O)(=O)Nc2ccc3c(c2)CC(=O)N([C@@H](C)CO)C[C@H](C)[C@@H](CN(C)S(=O)(=O)c2ccccc2)O3)cc1	inactive	inactive	inactive
CC(C)Cc1cc(CN)on1	inactive	inactive	inactive
COc1ccc(S(=O)(=O)Nc2ccc3c(c2)C(=O)N([C@@H](C)CO)C[C@H](C)[C@H](CN(C)S(=O)(=O)c2ccc(F)cc2)O3)cc1	inactive	inactive	inactive
CSc1nc2nc(N)nc(N)c2s1	inactive	inactive	inactive
C[C@H](CO)N1C[C@H](C)[C@@H](CN(C)C(=O)CCC(F)(F)F)OCCCC[C@H](C)Oc2ccc(NC(=O)Cc3ccccc3)cc2C1=O	inactive	inactive	inactive
CO[C@@H](CN(C)S(=O)(=O)c1ccc(C)cc1)[C@H](C)CN([C@H](C)CO)S(=O)(=O)c1cccc(Cl)c1	inactive	inactive	inactive
CO[C@@H]1CN(C)C(=O)c2cc(NC(=O)CC(F)(F)F)ccc2OC[C@H](C)N(C(=O)C2CCOCC2)C[C@H]1C	inactive	inactive	inactive
C[C@@H]1CC=CC[C@@H](c2cccc(Cl)c2)NC(=O)[C@H](Cc2ccccc2)N(C)C(=O)c2ccccc2O1	inactive	inactive	inactive
C[C@@H]1CN([C@@H](C)CO)C(=O)Cc2cc(NC(=O)Nc3ccccc3)ccc2O[C@@H]1CN(C)C(=O)Nc1ccc(C(F)(F)F)cc1	inactive	inactive	inactive
C=C1[C@H]2C[C@@H]3C(=C4[C@H](CO[C@@H]4[C@H]4CCCN4S(=O)(=O)c4ccccc4[N+](=O)[O-])[C@H]4C(=O)N(C)C(=O)[C@H]43)C[C@@H]2C(=O)N1C	inactive	inactive	inactive
COc1ccc([Si](C)(C)[C@@H]2[C@@H](CC(=O)N(CCO)Cc3ccccc3)O[C@]3(C(=O)N(Cc4cccc(N5CCCCC5=O)c4)c4ccccc43)[C@H]2C)cc1	inactive	inactive	inactive
C[C@H]1CN([C@@H](C)CO)C(=O)c2cc(NC(=O)CCCN(C)C)ccc2O[C@@H]1CN(C)S(=O)(=O)c1cccs1	inactive	inactive	inactive
CO[C@H]1CN(C)C(=O)c2cc(NC(=O)C3CC3)ccc2OC[C@@H](C)N(C(=O)CN2CCOCC2)C[C@H]1C	inactive	inactive	inactive
C[C@@H]1CN([C@H](C)CO)C(=O)Cc2cc(NS(C)(=O)=O)ccc2O[C@@H]1CN(C)C(=O)Nc1ccccc1	inactive	inactive	inactive
Cc1ccc(S[C@]2(C(=O)NC(C)C)CC(=O)N(Cc3cc(C(F)(F)F)cc(C(F)(F)F)c3)[C@@H]2c2ccc(CO)cc2)cc1	inactive	inactive	inactive
O=C(C[C@@H]1CC[C@H]2[C@@H](COC[C@H](O)CN2S(=O)(=O)c2ccccc2Cl)O1)NCc1ccccc1Cl	inactive	inactive	inactive
COc1ccc(S(=O)(=O)N(C)C[C@H]2OCCCC[C@H](C)Oc3ccc(NC(=O)Nc4ccccc4)cc3C(=O)N([C@H](C)CO)C[C@@H]2C)cc1	inactive	inactive	inactive
COC(=O)Nc1nc2cc(C(=O)c3cccs3)ccc2[nH]1	inactive	inactive	inactive
Cc1ccc(S(=O)(=O)N(C)C[C@H]2Oc3ccc(NS(=O)(=O)c4ccccc4)cc3CC(=O)N([C@@H](C)CO)C[C@H]2C)cc1	inactive	inactive	inactive
COc1cc(OC)cc(-c2ccc([C@H]3CC(=O)C[C@@H](c4ccccc4)C34C(=O)c3ccccc3C4=O)cc2)c1	inactive	inactive	active
C[C@H](CO)N1C[C@H](C)[C@@H](CN(C)S(=O)(=O)c2cn(C)cn2)Oc2ccc(NC(=O)CCCCCC(=O)Nc3ccccc3N)cc2C1=O	inactive	inactive	inactive
O=C(C[C@@H]1CC[C@H]2[C@@H](COC[C@@H](O)CN2C(=O)c2ccc3c(c2)OCO3)O1)NC1Cc2ccccc2C1	inactive	inactive	inactive
CO[C@@]12[C@H](COC(N)=O)C3=C(C(=O)C(C)=C(N)C3=O)N1C[C@@H]1N[C@@H]12	inactive	inactive	inactive
Cc1ccc(S(=O)(=O)N(C)C[C@@H]2OCCCC[C@@H](C)Oc3ccc(NC(=O)Nc4c(C)noc4C)cc3C(=O)N([C@H](C)CO)C[C@@H]2C)cc1	inactive	inactive	inactive
C[C@H]1COC(=O)[C@@H](Cc2ccc(F)cc2)CCC=CC[C@@H](CC(=O)N[C@@H](CO)Cc2ccccc2)C(=O)N1	inactive	inactive	inactive
Cc1noc(C)c1S(=O)(=O)Nc1ccc2c(c1)C(=O)N([C@@H](C)CO)C[C@@H](C)[C@H](CN(C)C(=O)Nc1ccc(F)cc1)OCCCC[C@H](C)O2	inactive	inactive	inactive
COc1ccc(CN(C)C[C@H]2OCCCC[C@H](C)Oc3ccc(NS(=O)(=O)c4c(C)noc4C)cc3C(=O)N([C@@H](C)CO)C[C@@H]2C)cc1	inactive	inactive	inactive
CCCC#Cc1ccc2c(c1)O[C@@H](CN(C)S(=O)(=O)c1cccc(F)c1)[C@@H](C)CN([C@H](C)CO)S2(=O)=O	inactive	inactive	inactive
CC(C)C#Cc1ccc2c(c1)O[C@H](CN(C)C(=O)c1cnccn1)[C@H](C)CN([C@@H](C)CO)S2(=O)=O	inactive	inactive	inactive
